PubChem BioAssay AID1508624 (National Center for Advancing Translational Sciences (NCATS), 2021)
The campaign covered roughly 48,000 compounds. About 120 (0.25%) were called active. Another 4% or so got no clear call; they are omitted. The call rests on the fitted dose curve; in most records, active means well fitted activation curve with a large enough effect; inconclusive means small, poorly fitted or top-dose-only effect, or another doubt; inactive means no such curve, though single readings can be large or run the other way. This is one part of the list.

assay: Primary qHTS for Identification of Small Molecule Activators of Huntingtin-Antisense Promoter Activity; details: HEK293 HTT-AS promoter firefly luciferase reporter, 24 h; series mostly up to 57.5 µM; activity change, positive = activation: at the top concentration; further: nearly all actives have a fitted effect of over 55% in size
Summary of the method: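 HEK293 Fluc reporter, 2,500 cells/well, 24 h pre-culture; cpds up to 57.5 uM final, 24 h 37 degrees C; Dual-Glo, 10 min RT; normalized vehicle = 0%, zero RLU = -100%.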

Activity change, positive = activation, inactive:
NS(=O)(=O)c1cc2c(cc1Cl)NC(C(Cl)Cl)NS2(=O)=O (stereo not drawn), Cc1nc2c(c(C)nn2-c2ccccc2)c(C)c1CCC(=O)NCc1ccccc1 -25.1%, CCc1cccc(NC(=O)C2CCN(S(=O)(=O)c3cccc(-c4noc(C)n4)c3)CC2)c1 -38.7%, CCN1CCN(c2cc(C)c3cc(NC(=O)c4ccc(OC)c(OC)c4)ccc3n2)CC1 -0.287%, CCN1CCN(Cc2c(O)ccc3cc(-c4ccc(OC)cc4)c(=O)oc23)CC1 -8.26%, COc1ccc(C2c3cccn3CCN2S(=O)(=O)c2ccc([N+](=O)[O-])cc2)cc1 (stereo not drawn) -16.1%, COc1ccc(C)cc1Nc1nc(N)c2cc(OC)c(OC)cc2n1 -16%, CC(=O)c1cccc(NC(=O)c2nc(-c3ccccc3)n(-c3ccccc3C)n2)c1 -29.4%, COc1ccc(CN2CCCN(CC(=O)Nc3ccc4c(c3)OCCO4)S2(=O)=O)cc1 -3.04%, CCC(=O)Nc1ccc(O)cc1 -0.177%, COc1ccc(C2CC(=O)N(CC(=O)Nc3cccc(C)c3C)c3ccccc3S2)cc1OC (stereo not drawn) -37.4%, Cc1ccc(C(=O)N2CCC(C(N)=O)CC2)cc1NC(=O)c1nsc2ccccc12 2.94%, CN1CCN(C2Cc3ccccc3Sc3ccc(Cl)cc32)CC1 (stereo not drawn) -27.5%, COc1ccccc1CNC(=O)CCCn1c(=O)c2ccccc2n(Cc2ccc(C)cc2)c1=O -7.31%, COc1ccc(N(CC(=O)NCCc2ccc(Cl)cc2)S(=O)(=O)c2c(C)nn(C)c2C)cc1 -25.2%, Cc1ccc(Sc2ccc(N3CCCC(C(=O)Nc4ccc(F)cc4F)C3)nn2)cc1 (stereo not drawn) -21%, CCOC(=O)C1CCN(C(=O)c2nn(-c3ccc(OC)cc3)c(=O)c3c2c2ccccc2n3C)CC1 -1.95%, Cc1ccc(-c2noc(-c3nnn(CC(=O)Nc4cc(Cl)ccc4C)c3N)n2)cc1 3.61%, Cc1nn(C)c2c1c(C(F)(F)F)cc(=O)n2CC(=O)N1CCC(C)CC1 -14.3%, CC1CCN(S(=O)(=O)c2cc(C(=O)N3CCN(c4ccccc4F)CC3)n(C)c2)CC1 -25.9%, CCc1ccc(C(=O)NC2=NC(c3ccccc3F)CC(=O)N2)cc1 (stereo not drawn) -2.26%, Cn1cnc(S(=O)(=O)N2CCCC(C(=O)Nc3ccc(OC(F)(F)F)cc3)C2)c1 (stereo not drawn) -7.58%, CCOC(=O)c1c(NC(=O)c2ccc(C)c(C)c2)sc2c1CCCCC2 -9.61%, CCC(=O)N1CCc2cc(S(=O)(=O)NC(C(=O)Nc3cc(OC)cc(OC)c3)C(C)C)ccc21 (stereo not drawn) 3.73%, COCCCNC(=O)c1ccc2nc(CCc3ccccc3)oc2c1 30%, CN[C@@H]1[C@H](O)[C@H](NC)[C@H]2O[C@@]3(O)C(=O)C[C@@H](C)O[C@H]3O[C@@H]2[C@H]1O 4.37%, Cc1c(Cl)ccc2sc(N3CCN(C(=O)CS(=O)(=O)c4ccccc4)CC3)nc12 -28%, O=C(Cc1c(C(=O)O)[nH]c2ccccc12)Nc1cccc(C(F)(F)F)c1 -1.13%, CCOc1ccc(OCC)c(NS(=O)(=O)c2ccc3c(c2)CCN3C(=O)C2CCC2)c1 -28%, CCOc1ccc(CNC(=O)Cn2c(=O)c3cccn3c3ccccc32)cc1 -27.1%, O=C(Nc1ccccc1Br)N1CCC(CN2CCCC2)CC1 0%, Cc1nnc(N2CCCC(C(=O)NCCc3ccccc3)C2)c2nn(-c3ccccc3)c(C)c12 (stereo not drawn) -8.37%, Cc1ccn2cc(-c3ccc(C)c(NS(=O)(=O)c4ccc(Cl)cc4)c3)nc2c1 5.23%, Cc1ccc(S(=O)(=O)c2nc(-c3cccc(Cl)c3)oc2NCc2ccccc2)cc1 -17.6%, Cc1cc(C)c(NC(=O)Cn2c(=O)n(Cc3ccc(C(=O)NCc4ccco4)cc3)c(=O)c3sccc32)c(C)c1 -31.6%, CN(C)CCNC(=O)c1ccc2c(c1)N(Cc1c(F)cccc1Cl)C(=O)c1ccccc1S2 -25.5%, CCOC(=O)Cn1c(=O)oc2cc(S(=O)(=O)N3CCN(c4cc(C)ccc4C)CC3)ccc21 -10.4%, CCC1CN(C(=O)Nc2cc(Cl)ccc2C(=O)OC)c2ccccc2S1 (stereo not drawn) -11.4%, COc1ccc(OC)c(NC(=O)COCc2cc(-c3ccc(F)cc3)on2)c1 -0.227%, Cc1ccc(C)c(Cn2c(=O)n(CCCC(=O)NCc3ccc4c(c3)OCO4)c(=O)c3sccc32)c1 -35.4%, CCCSc1ncc(Cl)c(C(=O)N2CCN(c3ccc(OC)cc3)CC2)n1 -35.2%, CN(C(=O)c1nn(C)c2c1CS(=O)(=O)c1ccccc1-2)c1cccc(Cl)c1 -8.14%, CCOC(=O)c1ccc(NC(=O)c2c(NCc3cccc(OC)c3OC)sc3c2CCC3)cc1 -3.24%, CC(C)Oc1ccc(C(=O)N2CCCCC2CCN2CCCCC2)cc1 (stereo not drawn) -9.81%, CCOC(=O)c1sc(N2C(=O)c3oc4ccc(F)cc4c(=O)c3C2c2ccc(O)cc2)nc1C (stereo not drawn) -10.6%, O=C(NCc1ccc(Cl)cc1Cl)c1cccc(N2CCCS2(=O)=O)c1 -31.7%, CCn1cc2nc(SCc3cccc(C(F)(F)F)c3)n(Cc3ccc(C)cc3)c(=O)c2n1 2.6%, Cc1cc(F)ccc1NC(=O)c1c(C)oc2c1C1=NCCN1C=N2 -7.27%, CCc1ccccc1NC(=O)CSc1nc2c(c(=O)[nH]1)CN(Cc1ccccc1OC)CC2 2.53%, COc1ccccc1-n1c(=O)n(C)c2c(C(N)=O)nc(-c3cc(OC)c(OC)c(OC)c3)nc21 -19.3%, CCCCCCC1CCC(C(=O)NC(C(=O)O)C(C)C)CC1 (stereo not drawn) -27.3%, O=C(CSc1oc(-c2ccco2)nc1S(=O)(=O)c1ccc(Cl)cc1)Nc1ccc(F)cc1 -6.54%, CC(C)c1ccc(NC(=O)CSC2=Nc3ccccc3C3=NC(CC(=O)NC4CCCCC4)C(=O)N23)cc1 (stereo not drawn) -35.4%, COc1ccc(-c2nc3ccccc3n3c(-c4ccccc4)c4c(=O)n(C)c(=O)n(C)c4c23)cc1 5.95% [at 11.5 µM, percent change from vehicle, -100% = no light], COc1ccc2c(Sc3ccc(Cl)cc3)c(C(=O)N3CCCCC3)[nH]c2c1 -10.4%, Cc1ccc(/C=C/c2onc(C)c2S(=O)(=O)N2CCC(C(=O)N(CCC(C)C)Cc3ccco3)CC2)cc1 17.3%, COc1ccc(N2CCN(CCCNC(=O)c3ccc4nc(N5CCCCC5)sc4c3)CC2)cc1 -55.7%, CCc1cccc(NC(=O)CCNS(=O)(=O)c2ccc3c(c2)CCN3C(C)=O)c1 11.1%
